Experimental data taken from a collection of fitness landscapes (doi:10.1126/science.1257360).
The list shows a part of the results.

B1: PhoQ; a variant is named by its letters at X, in order, P23837 (parent)
chain: MKKLLRLFFPLSLRVRFLLATAAVVLVLSLAYGMVALIGYSVSFDKTTFRLLRGESNLFYTLAKWENNKLHVELPENIDKQSPTMTLIYDENGQLLWAQRDVPWLMKMIQPDWLKSNGFHEIEADVNDTSLLLSGDHSIQQQLQEVREDDDDAEMTHSVAVNVYPATSRMPKLTIVVVDTIPVELKSSYMVWSWFIYVLSANLLLVIPLLWVAAWWSLRPIEALAKEVRELEEHNRELLNPATTRELTSLVRNLNRLLKSERERYDKYRTTLTDLTHSLKTPLXXLQXXLRSLRSEKMSVSDAEPVMLEQISRISQQIGYYLHRASMRGGTLLSRELHPVAPLLDNLTSALNKVYQRKGVNISLDISPEISFVGEQNDFVEVMGNVLDNACKYCLEFVEISARQTDEHLYIVVEDDGPGIPLSKREVIFDRGQRVDTLRPGQGVGLAVAREITEQYEGKIVAGESMLGGARMEVIFGRQHSAPKDE

Variants of: B1
Test: enrichment ratio after two sorts for PhoP signalling (ratio (wild type AVST 3.29)); higher = more functional
Settings: with PhoP (E. coli)

| Variant | enrichment ratio |
| --- | --- |
| GVCM | 3.45 |
| AGNC | ≤ 0.25 |
| GWIR | ≤ 0.25 |
| ETAL | ≤ 0.25 |
| ISDW | ≤ 0.25 |
| ESTL | ≤ 0.25 |
| FRYV | ≤ 0.25 |
| YWWP | ≤ 0.25 |
| NSVE | ≤ 0.25 |
| ELMA | ≤ 0.25 |
| ERLY | ≤ 0.25 |
| VVTK | ≤ 0.25 |
| RMMM | ≤ 0.25 |
| IQRA | ≤ 0.25 |
| VTPR | ≤ 0.25 |
| VVSG | ≤ 0.25 |
| RKEV | ≤ 0.25 |
| DDCE | ≤ 0.25 |
| AFWE | ≤ 0.25 |
| SIQV | 6.42 |
| DMMT | ≤ 0.25 |
| IMFK | ≤ 0.25 |
| TKDR | ≤ 0.25 |
| FNVW | ≤ 0.25 |
| KAAV | ≤ 0.25 |
| RLLQ | 0.575 |

| Variant | enrichment ratio |
| --- | --- |
| EGRR | ≤ 0.25 |
| HSMR | ≤ 0.25 |
| EGTC | ≤ 0.25 |
| QESN | 5.1 |
| QFSY | ≤ 0.25 |
| RFMM | ≤ 0.25 |
| WGLF | 0.458 |
| FQVS | ≤ 0.25 |
| KCGW | ≤ 0.25 |
| QDPN | ≤ 0.25 |
| IEKY | ≤ 0.25 |
| TGGQ | 3.57 |
| GTLD | ≤ 0.25 |
| TRSV | ≤ 0.25 |
| RDIN | ≤ 0.25 |
| VYWC | ≤ 0.25 |
| RHAF | ≤ 0.25 |
| DVHT | ≤ 0.25 |
| RKYN | ≤ 0.25 |
| RATN | ≤ 0.25 |
| DYNL | ≤ 0.25 |
| PCMS | ≤ 0.25 |
| WACF | ≤ 0.25 |
| WEII | ≤ 0.25 |
| YLIK | ≤ 0.25 |
| PRCQ | ≤ 0.25 |

| Variant | enrichment ratio |
| --- | --- |
| TFMN | ≤ 0.25 |
| AGLP | ≤ 0.25 |
| GDIW | ≤ 0.25 |
| MMNR | ≤ 0.25 |
| STEK | ≤ 0.25 |
| YKDQ | ≤ 0.25 |
| LFLR | ≤ 0.25 |
| LCIQ | ≤ 0.25 |
| PRWD | ≤ 0.25 |
| YNDL | ≤ 0.25 |
| ESEI | ≤ 0.25 |
| RFME | ≤ 0.25 |
| PDHD | ≤ 0.25 |
| PAHR | ≤ 0.25 |
| FDLS | ≤ 0.25 |
| RKME | ≤ 0.25 |
| DLPR | ≤ 0.25 |
| IGNN | ≤ 0.25 |
| DNYG | ≤ 0.25 |
| WFSQ | ≤ 0.25 |
| GQAS | 0.909 |
| TNQR | ≤ 0.25 |
| WGIK | ≤ 0.25 |
| LAFL | 2.72 |
| YVNL | ≤ 0.25 |
| WDSK | ≤ 0.25 |

| Variant | enrichment ratio |
| --- | --- |
| KSNA | ≤ 0.25 |
| NDDD | ≤ 0.25 |
| ELPF | ≤ 0.25 |
| HPLM | ≤ 0.25 |
| GNLF | 6.83 |
| AIDL | ≤ 0.25 |
| KNQG | ≤ 0.25 |
| GGTY | ≤ 0.25 |
| DGWW | ≤ 0.25 |
| AYPL | ≤ 0.25 |
| SQRY | ≤ 0.25 |
| VQVL | ≤ 0.25 |
| PYHA | ≤ 0.25 |
| LTHT | ≤ 0.25 |
| IMMH | ≤ 0.25 |
| PQDD | ≤ 0.25 |
| NSNM | ≤ 0.25 |
| YGKR | ≤ 0.25 |
| MDHP | ≤ 0.25 |
| WYIS | ≤ 0.25 |
| QNLM | ≤ 0.25 |
| YRGY | ≤ 0.25 |
| AMVL | 4.86 |
| ISMN | ≤ 0.25 |
| NGIL | ≤ 0.25 |
| AMLR | 2.02 |

| Variant | enrichment ratio |
| --- | --- |
| SFAD | ≤ 0.25 |
| PFFS | ≤ 0.25 |
| FLIC | ≤ 0.25 |
| INIW | ≤ 0.25 |
| QSEN | ≤ 0.25 |
| REYF | ≤ 0.25 |
| YNQH | ≤ 0.25 |
| TIFD | ≤ 0.25 |
| QYSQ | ≤ 0.25 |
| AQFM | 12.2 |
| KVST | ≤ 0.25 |
| GWEW | ≤ 0.25 |
| SQCM | 19.2 |
| RKSG | ≤ 0.25 |
| IHFD | ≤ 0.25 |
| WTCA | ≤ 0.25 |
| VCIM | ≤ 0.25 |
| PQVW | ≤ 0.25 |
| GQRQ | ≤ 0.25 |
| TRKC | ≤ 0.25 |
| HGQP | ≤ 0.25 |
| HDHT | ≤ 0.25 |
| FTMT | ≤ 0.25 |
| KNFK | ≤ 0.25 |
| AGAM | 5.14 |
| PENA | ≤ 0.25 |

| Variant | enrichment ratio |
| --- | --- |
| IVLK | ≤ 0.25 |
| YHQG | ≤ 0.25 |
| LQQE | ≤ 0.25 |
| IICL | ≤ 0.25 |
| TNCN | 1.66 |
| EFTS | ≤ 0.25 |
| FGDV | ≤ 0.25 |
| VVRK | ≤ 0.25 |
| ELTV | ≤ 0.25 |
| YPYY | ≤ 0.25 |
| SSVR | ≤ 0.25 |
| YQWC | ≤ 0.25 |
| WCST | ≤ 0.25 |
| FQGR | ≤ 0.25 |
| YDHI | ≤ 0.25 |
| MMSP | ≤ 0.25 |
| YSHK | ≤ 0.25 |
| WDTI | ≤ 0.25 |
| MYNH | ≤ 0.25 |
| YTLG | 6.93 |
| VFPW | ≤ 0.25 |
| GYKR | ≤ 0.25 |
| YLVQ | ≤ 0.25 |
